PMC7001965, “Molecular identification and functional characterization of a cyanogenic glucosyltransferase from flax (Linum unsitatissimum)” (PLoS ONE, 2020)

Assays:
[1] = molecular target: LuCGT1 (UGT85Q1) (Linum usitatissimum, UniProt G9BER4); conditions: read-out: Apparent Km; co-substrate 14C-UDP-glucose; HEPES 0.1 M pH 8.0, 30°C, 100 μg yeast lysate protein; glucosyl acceptor; unstable, cyanohydrin dissociates at assay pH
[2] = system: O=c1ccn([C@@H]2O[C@H](CO[P@@](=O)(O)O[P@@](=O)(O)O[C@H]3O[C@H](CO)[C@@H](O)[C@H](O)[C@H]3O)[C@@H](O)[C@H]2O)c(=O)[nH]1; experiment: cells, lysate or membranes; conditions: co-substrate acetone cyanohydrin, HEPES 0.1 M pH 8.0, 30°C, 100 μg yeast lysate protein, glucosyl donor, labelled compound

Molecule	Km [1]	Km [2]	Vmax [2]
CC(C)(O)C#N [acetone cyanohydrin]	61.3 ± 4.5 µM	–	–
LuCGT1 (UGT85Q1) (Linum usitatissimum)	–	248 ± 56 µM	0.42 ± 0.052 nmol/min
